Over roughly 5,400 compounds, “IFI” has its median near 2; the highest 2% begin near 22. Some of the results follow.

This experiment is described as follows: NOVARTIS: Inhibition Frequency Index (IFI) - the number of HTS assays where a compound showed > 50% inhibition/induction, expressed as a percentage of the number of assays in which the compound was tested. The class given is functional.
Consider `COc1ccc(Cn2c(=S)[nH]c3ccsc3c2=O)cc1`, for which the IFI came out at 2.3%.
The same measure for `CN(CCCNc1ccnc2cc(Cl)ccc12)C(=O)c1ccc(C(F)(F)F)cc1`: 2.73%; for `Cc1ccn2c(NC(C)(C)CC(C)(C)C)c(-c3ccccc3OC(=O)c3ccc4c(c3)OCO4)nc2c1`: 2.8%.
With `O=C(O)c1c(F)cccc1Cl`, the IFI was 0%.
The same measure for `CCN(CC)CCCN(Cc1cc2cc3c(cc2[nH]c1=O)OCCO3)C(=S)Nc1cccc(Cl)c1`: 6.9%; for `Clc1ccc(-c2c[n+](Cc3ccc(Cl)c(Cl)c3)c3n2CCC3)cc1`: 2.38%; for `COc1cc2c(c(OC)c1CN1CCN(c3ccccc3)CC1)C(=O)c1ccccc1C2=O`: 15.4%.
The same measure for `CCCN(CCC)CCCNc1ccc(C(=O)Nc2ccc(C)c(F)c2)cc1[N+](=O)[O-]`: 0%; for `NC(=O)NN=C1c2cc(S(=O)(=O)NCc3ccco3)ccc2-c2ccc(S(=O)(=O)NCc3ccco3)cc21`: 0%.
For `O=C1CCC(=O)N1c1ccc(CSc2nc3ccccc3[nH]2)cc1` the value was 0%.
`Cc1cc(Nc2ccc(C)c(Cl)c2)n2ncnc2n1` came in with an IFI of 0%.
In the case of `COc1cc(OC)cc(N2CCN(CCNCCOc3ccccc3)[C@@H](c3ccccc3)C2)c1`, the IFI amounted to 4.94%.
Turning to `COc1ccccc1CNC(=O)CCn1c(=O)[nH]c2ccccc2c1=O`, the IFI was 1.67%.
For `O=C(CSc1nc2ccccc2c(=O)n1-c1ccc(C(=O)N2CCOCC2)cc1)c1ccccc1` the value was 0%.
The same measure for `Cc1ccc(CN2CCN(Cc3cn(C(C)C)c4ccccc34)CC2CCO)o1` (configuration not stated): 0%; for `CC(C)(C)c1ccc(C2CC3=Nc4ccccc4N(C(=O)c4ccccc4Cl)C(c4ccc(F)cc4)C3=C(O)C2)cc1` (configuration not stated): 7.14%; for `COc1cc(CNc2ccc(N3CCCCC3)cc2)cc(Cl)c1OCc1ccc(F)cc1`: 5.56%.
For `c1cc2cc(CN3CCc4nc(N5CCCCC5)sc4C3)ccc2[nH]1` the value was 4.17%; for `Cc1cc(CNC(=O)CC2C(=O)NCCN2Cc2ccccc2C(F)(F)F)nn1C` (configuration not stated), 0%; for `C=CCN1C=CC(=Cc2sc3ccccc3[n+]2C)c2ccccc21`, 17.6%.
For `Cn1c(=O)c2c(nc(N3CCN(C(=O)Nc4ccc(F)cc4F)CC3)n2C)n(C)c1=O`, the IFI worked out at 0%.
For `COc1ccc(C2CC(=O)C3=C(C2)NC(C)=C(C(=O)OC2CCCC2)C3c2ccccc2F)cc1OC` (configuration not stated) the value was 5.88%; for `Cc1cc(C)nc(NC(=N)Nc2cccc(O)c2)n1`, 1.05%; for `CC(C)NC(=O)c1ccc2c(c1)N=C(/C=C/c1ccccc1)N(CC1CCCCC1)C2`, 6.17%.
For `O=C(C1CCC1)N1CCOc2c(cc(-c3csc4ccccc34)cc2OCCc2ccccn2)C1` the value was 2%; for `Cc1ccc(-c2noc(C3CCN(C(=O)Nc4ccc(C#N)cc4)CC3)n2)o1`, 0%.
For `COc1cc(C2C(C(=O)OCC(C)C)=C(C)NC3=C2C(=O)CC(c2ccccc2)C3)cc(Br)c1O` (configuration not stated) the value was 4.65%.

Values taken from ChEMBL document CHEMBL1156829.
